From ChEMBL document CHEMBL4888484, “Replenishing the malaria drug discovery pipeline: Screening and hit evaluation of the MMV Hit Generation Library 1 (HGL1) against asexual blood stage Plasmodium falciparum ,using a nano luciferase reporter read-out” (2022)
Hit rate of the full screen: of about 150,000 compounds, about 540 (0.36%) showed an effect of 50% or more. The list shows a part of the results.

Test system: Plasmodium falciparum
Assay: Primary screen in NF54 nanoGlo assay, in single point, at 2uM, 72h; a lower Z score goes with more inhibition
Format: functional, Erythrocyte
Settings: timepoint 72 hour

| Structure (SMILES) | % Inhibition | Z score |
| --- | --- | --- |
| Cc1ccc(-c2nc3cccnc3s2)cc1NC(=O)CCC1CCCCC1 | -18% | 3.55 |
| COc1ccc(-c2ncc(CN3CCC[C@H](C(=O)c4cccc(OC(C)C)c4)C3)cn2)cc1 | -1% | 0.1 |
| CCCN(CC(=O)N(Cc1ccccc1)Cc1cccs1)C(=O)CC(C)C | -12% | 1.15 |
| CCc1cc(C(=O)NC[C@H](C)c2ccc(S(C)(=O)=O)cc2)nn1C | 4% | -0.62 |
| O=C1c2c(Br)c(Br)c(Br)c(Br)c2C(=O)N1c1ccc(Cc2ccncc2)cc1 | 1% | -0.11 |
| O=C(NCCn1ccnc1)N1CCN(S(=O)(=O)c2ccccc2)CC1 | -3% | 0.56 |
| CC(=O)N1CCCN(C(=O)c2ccc(C)c(F)c2)CCNC(=O)[C@@H]2CCC[C@@H]21 | 33% | -3.69 |
| CC(=O)N1CCC(CN(C)CC(C)c2cccc(Cl)c2)C1 (centres undefined) | -9% | 1.25 |
| CN(Cc1noc(C2CCCC2)n1)C[C@H]1CC(c2ccccc2)=NO1 | -5% | 0.78 |
| Cc1nc(C(=O)NCC2(O)CCC2)c(Br)s1 | 0% | -0.01 |
| CC(=O)c1ccc(F)c(-c2cccc(C(=O)NC[C@H]3CN(C)CCO3)c2)c1 | 6% | -0.83 |
| CN(CCN1CCCCCC1)Cc1cc(C#CCO)cs1 | -1% | 0.23 |
| Cn1nc(-c2ccccc2F)c2cc(C(=O)N3CCN(c4ccc(F)cc4)CC3)sc21 | -10% | 1.26 |
| Cn1nc(C2CCC2)cc1NC(=O)NCc1ccsc1 | -13% | 2.06 |
| CNC(=O)c1cnc(-c2ccc(F)cc2)n(CC(=O)Nc2cccc(C)c2)c1=O | -17% | 2.72 |
| CC[C@](C)(NCCc1c[nH]c2ccccc12)c1nnnn1CCOC | 38% | -1.29 |
| O=C(Cc1ccccc1F)Nn1cnc2ccccc2c1=O | 2% | -0.43 |
| O=c1c2nnc3ncnn3c2ccn1-c1ccc(Oc2ccccc2)cc1 | 13% | -1.86 |
| COc1ccc(Oc2c(CN(CC3CC3)C(=O)c3ccc(OC)cc3)c(C)nn2-c2cccc(Cl)c2)cc1 | -3% | 0.48 |
| Clc1cc(CN2CCC[C@H](Cn3cncn3)C2)cc2c1OCCO2 | -10% | 1.39 |
| O=C(NC(c1nccs1)C(F)(F)F)N1CC2CCC(O)CC2C1 (centres undefined) | -5% | 0.87 |
| CCN1C[C@@H]2CCN(CCc3ccccc3)C[C@]2(c2nc(C)no2)C1 | -4% | 0.58 |
| CC1(C)C[C@@H](NC(=O)c2cccnc2OCc2ccccc2F)CCO1 | -15% | 2.88 |
| Cc1cc2nc3n(c(=O)c2n1CC(=O)N1CCCc2ccccc21)CCCC3 | -2% | 0.23 |
| O=S(=O)(Cc1ccco1)[C@H]1CCN(S(=O)(=O)Cc2cccc(C(F)(F)F)c2)C1 | -4% | 0.72 |
| CCC[C@@]1(C)C(=O)NCCN1Cc1ncc(C)o1 | 1% | -0.1 |

| Structure (SMILES) | % Inhibition | Z score |
| --- | --- | --- |
| Cc1cc(C)c2c(c1)[C@@H](NCc1nnc3n1CCCCC3)CCCO2 | -4% | 0.85 |
| OCCCCN1CCc2[nH]nc(-c3ccc(-c4ccccc4)cc3)c2C1 | -3% | 0.45 |
| COc1cccc(C(=O)n2nc(Nc3ccc(Cl)cc3)cc2Nc2ccc(Cl)cc2)c1 | 25% | -2.88 |
| Cc1cccc(N2CCC3(CCCN3Cc3cccnc3N)CC2)n1 | -17% | 1.66 |
| Cc1nc(N2CCCC2)ccc1NC1CCN(C(=O)C(C)(C)C)CC1 | -9% | 0.97 |
| CN(C1CCC1)S(=O)(=O)c1ccc(OCC(F)(F)F)nc1 | -5% | 0.77 |
| CCc1nc(CN2C(=O)COc3cc(S(=O)(=O)Nc4ccc(C)cn4)c(C)cc32)no1 | -1% | 0.09 |
| O=C1CN(CCCNC(=O)Nc2cc(F)c(C(F)(F)F)cc2F)CCN1 | -8% | 1.14 |
| O=C(c1cn[nH]c1)N1CCC([C@H]2c3[nH]cnc3CCN2C(=O)Cc2ccccc2)CC1 | -11% | 1.6 |
| CNS(=O)(=O)C[C@H]1CCCN1Cc1cn(C)nc1C1CCCC1 | 3% | -0.41 |
| CC(C)c1ccc(S(=O)(=O)N2CCNC(=O)C23CCCC3)cc1 | -7% | 1.31 |
| Cc1ccccc1CN[C@@H]1C[C@@H](O)[C@H](CO)[C@H]1Cc1ccnc(-c2ccccc2F)n1 | -2% | 0.31 |
| COC(=O)c1c(C)[nH]c(C(=O)Nc2ccc(-c3cn4cccc(C)c4n3)cc2)c1C | 15% | -1.95 |
| CCc1nc2ccccc2n1[C@@H](CC)C(=O)N(C)Cc1ccon1 | 0% | 0.05 |
| O=C(NCCC1=CCCC1)NO[C@@H]1CCCCO1 | -4% | 0.52 |
| CN(C1CCOCC1)S(=O)(=O)c1ccc2c(c1)C(=O)CCC2 | 9% | -1.22 |
| CCn1ncc(C(=O)N(CCCN2CCCC2=O)C2CCOCC2)c1C | -5% | 0.87 |
| O=C(c1ccc2ccccc2n1)N1CC[C@H](Cc2nncn2CC2CC2)C1 | -3% | 0.6 |
| O=C(c1ccccn1)N1CC[C@@]2(CCCN(C3CCCCC3)C2=O)C1 | 10% | -1.71 |
| Cc1nc(CNC(=O)Nc2ccccc2OC2CCN(C)CC2)sc1C | -18% | 1.68 |
| Cc1cc(C)nc(NCC2(N3CCOCC3)CCOCC2)n1 | -2% | 0.23 |
| Cc1cc(CN2CCN(C(=O)Nc3c(F)c(F)c(F)c(F)c3F)CC2)on1 | 7% | -1.37 |
| O=S(=O)(CC1CCCCC1)N1CCCC1 | 15% | -1.75 |
| CCC(=O)Nc1cccc(-n2nc(OC(C)C)nc2-c2cccs2)c1 | -3% | 0.41 |
| CC(C)(C)c1ccc(C(=O)Nc2cc(-c3ccccc3F)nn2-c2ccccc2)cc1 | -9% | 1.28 |
| Cc1ccc(-c2nc3n(CC(=O)Nc4ccc(Cl)cc4)c4c(c(=O)n3n2)CCC4)cc1 | -3% | 0.31 |
